Molecular target: T1, purified human TRAP1 (human, UniProt Q12931 60-704)
T1 sequence: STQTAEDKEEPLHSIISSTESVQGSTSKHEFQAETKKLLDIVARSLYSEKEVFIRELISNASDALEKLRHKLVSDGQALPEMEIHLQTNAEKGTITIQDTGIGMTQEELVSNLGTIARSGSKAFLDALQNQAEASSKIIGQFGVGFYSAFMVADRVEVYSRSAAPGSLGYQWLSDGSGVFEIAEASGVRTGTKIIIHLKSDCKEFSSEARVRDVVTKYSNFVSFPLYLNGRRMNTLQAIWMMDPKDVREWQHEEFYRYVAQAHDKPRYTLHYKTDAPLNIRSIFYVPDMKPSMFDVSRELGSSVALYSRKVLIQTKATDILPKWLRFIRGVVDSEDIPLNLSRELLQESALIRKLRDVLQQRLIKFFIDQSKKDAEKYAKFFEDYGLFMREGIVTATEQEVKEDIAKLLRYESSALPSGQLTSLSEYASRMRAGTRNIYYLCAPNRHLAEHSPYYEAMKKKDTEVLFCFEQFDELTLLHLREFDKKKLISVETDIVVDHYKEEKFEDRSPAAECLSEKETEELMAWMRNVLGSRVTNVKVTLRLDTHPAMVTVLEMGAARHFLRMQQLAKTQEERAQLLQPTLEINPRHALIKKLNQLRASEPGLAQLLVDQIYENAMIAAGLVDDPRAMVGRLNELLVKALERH
Experiment: far-Western, overlay or dot blot

- binding result: binds
B1: F-ATP synthase subunit β (bovine heart) (natural protein)
chain: not shown

From publication doi:10.1101/2021.12.06.471412 (bioRxiv, 2021)
